# Measurements published in the supplement of paper PMC10338343.
# ± gives the standard deviation. Whole data set: some 3,000 sequences, median “pre-steady-state target cleavage rate” near 0.0079, cut for the highest 2% near 0.2. Only a part is listed here, and it is no random draw.
# Test system: MILI (PIWIL2) piRISC loaded with piRNA #2 (26 nt)
# Assay: pre-steady-state target cleavage rate (min^-1); MIWI and MILI are mouse PIWI proteins and EfPiwi is from a freshwater sponge; tags in brackets are library labels; higher = faster piRNA-guided slicing of the target
# Conditions: guide: piRNA #2 5'p-UUAGGUAACCCAGUAGAUCCAGAGGA; auxiliary factor: 500 nM mouse GTSF1
# Protocol: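 Cleave-'n-Seq: a library of target RNAs (target site embedded in constant flanks, ACAGCATTCCGCGTTAGTGATATCCG... 5' flank; DNA-blocked outside the site) at 0.1 nM was incubated with 1 nM active mouse MILI or MIWI piRISC (synthetic 5'-monophosphorylated piRNA guide) with or without 500 nM mouse GTSF1 at 33 °C for 1 min to 16 h. Uncleaved targets were sequenced and normalised to non-target controls, and the pooled three trials were fitted to a burst-and-steady-state model to give the pre-steady-state cleavage rate (min^-1; k3 is constrained to at most 1e-4). Sequence is the target site only; target names encode pairing extent (gX:gY) and contiguous / 1-mismatch / 2-mismatch / bulge geometry. Fits with R² ≤ 0 are excluded.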
row,Sequence,pre-steady-state target cleavage rate
1,CUUAACCUCUGGAUCUACUGUGUUACCUAA,0.0349 ± 0.0087
2,CUUAAGGUCUGCAUCUACUGGGAUACCUAA,0.0141 ± 0.0086
3,CUUAAGCUCUCGAUCUACUCGGUUACCUAA,0.00409 ± 0.0019
4,CUUAAGGCCUGGAUCUACUGGGUUACCUAA,0.102 ± 0.019
5,CUUAUCCUGUGGAUCAACUGGGUUACCUAA,0.0451 ± 0.0081
6,CUUAAGGACUGGAUCUACUGGGUUACCUGAA,0.00949 ± 0.0087
7,CUUAACGUCUGGAUCUACUGGGAUACCUAA,0.0359 ± 0.0097
8,CUUAACCUCUGGAUCUACAGCGUUACCUAA,0.015 ± 0.0051
9,CUUAAGGAGACCUAGAACAGGGUUACGUAA,< 0.0001
10,CUUAACCUCUGGAAGAACUGGGUUACCUAA,0.0271 ± 0.0098
11,CUUAAGCUCUGCAUGUACUGGGUUACCUAA,0.0586 ± 0.011
12,CUUAUCCUCUGGAUCUACUGGGUUUCGUAA,0.171 ± 0.071
13,CUUAAGGUCUGGAUCUUGUGGGUUACCUAA,0.0175 ± 0.0073
14,CUUAACCUCUGGUAUCUACUGGGUUACCUAA,0.584 ± 0.19
15,CUUAAGGAGACCUAGAACUGGGAUUCCUAA,< 0.0001
16,CUUAACCUCUGCAACUACUGGGUUACCUAA,0.0899 ± 0.015
17,CUUAACCUGUGGAUCAACUGGGUUACCUAA,0.0679 ± 0.018
18,CUUAAGCUCUCGAUCUACUGGGUUACCUUA,0.0783 ± 0.016
19,CUUAAGCUCUGGAUCUACAGGGUUAGCUAA,0.0295 ± 0.0094
20,CUUAUCCUCUGGAUCUACUAGGUUACCUAA,0.0905 ± 0.022
21,CUUAAGCUCUGGAUCUACUGGGUUGACCUAA,0.0696 ± 0.016
22,CUUAAGGACUGGAUCCACUGGGUUACCUAA,0.0312 ± 0.011
23,CUUAAGGUGAGGAUCUACUGGGUUACCUAA,0.0111 ± 0.0062
24,CUUAAGGACUGGAUCUACAGGGUUUCCUAA,0.0339 ± 0.011

row,Sequence,pre-steady-state target cleavage rate
1,CUUAAGCUCUGGAUCUACUGGGUUACCGUAA,0.0837 ± 0.022
2,CUUAACCUGUGGAUCUACUGGGUUACGUAA,0.0174 ± 0.0059
3,CUUAAGGUGUGGAUCUACUGGGUUUCCUAA,0.0102 ± 0.0047
4,CUUAAGCUCUGGUUCAACUGGGUUACCUAA,0.0564 ± 0.015
5,CUUAACCUCUGCGAUCUACUGGGUUACCUAA,0.0963 ± 0.019
6,CUUAAGGAGUGGAUCUACUGGGUUACCUGAA,0.0258 ± 0.015
7,CUUAAGGAGAGGACCUACUGGGUUACCUAA,0.00708 ± 0.0031
8,CUUAUCCACUGGAUCUACUGGGUUACGUAA,0.0135 ± 0.0041
9,CUUAAGCUCUGGAUCUACUGGGUUAGCAAA,0.0664 ± 0.023
10,CUUAAGCACUGGAUCUACUGGGUAACCUAA,0.0343 ± 0.012
11,CUUAACCUCUGGAUCUACUGGGUAACCUAA,0.0814 ± 0.021
12,CUUAAGCUCUCGGAUCUACUGGGUUACCUAA,0.064 ± 0.015
13,CUUAAGCUCUGGAUCUACUGGGUUACCUAC [g2:g24:cont:t1C],0.0429 ± 0.012
14,CUUAAGCUCUGGAUCUUCAGGGUUACCUAA,0.0336 ± 0.0066
15,CUUAAGGUCUGGAUCUACUGGGUUACCUAAA,0.0897 ± 0.019
16,CUUAACCUCUGGAUCUAGUGGGUUACCUAA,0.0781 ± 0.015
17,CUUAAGGACUGGAUCAACUGGGUUACCUAA,0.017 ± 0.013
18,CUUAAGGUCUGGAUCAACUGGGUAACCUAA,0.00828 ± 0.0054
19,CUUAAGGUCAGGAACUACUGGGUUACCUAA,0.0113 ± 0.0075
20,CUUAACCUCUGGAUCUACCGGGUUACCUAA,0.0865 ± 0.029
21,CUUAUCGUCUGCAUCUACUGGGUUACCUAA,0.115 ± 0.018
22,CUUAAGGUCUCGAUCUACUGCGUUACCUAA,0.00857 ± 0.0044
23,CUUAAGCUCUGGAUGUACUGGGUAACCUAA,0.0209 ± 0.0076
24,CUUAUCCGCUGGAUCUACUGGGUUACCUAA,0.113 ± 0.017

row,Sequence,pre-steady-state target cleavage rate
1,CUUAAGGAGAGGAUCUACUGGGUAUACCUAA,0.00494 ± 0.0048
2,CUUAAGGAGUGGAUCUACUGGGUUAACCUAA,0.0215 ± 0.0093
3,CUUAAGGUCUGGAUCUUCUGGGUUACGUAA,0.00936 ± 0.0036
4,CUUAACCUCUGCAUCAACUGGGUUACCUAA,0.0686 ± 0.016
5,CUUAAGGACUGGAUCUACUGUGUUACCUAA,0.00898 ± 0.0088
6,CUUAAGGACUGGACCUACUGGGUUACCUAA,0.0236 ± 0.0092
7,CUUAAGGACUGGAUCUACUGGGUUUACCUAA,0.0248 ± 0.015
8,CUUAAGGUCUGGUAUCUACUGGGUUACCUAA,0.0727 ± 0.016
9,CUUAACCUCUGUGAUCUACUGGGUUACCUAA,0.0857 ± 0.016
10,CUUAAGGUCUGGAUCUACUGGGUUACACUAA,0.106 ± 0.021
11,CUUAACCUCUCGAUCUACAGGGUUACCUAA,0.133 ± 0.015
12,CUUAAGGAGAGGAUCUACUGGGUUACCGUAA,0.00417 ± 0.004
13,CUUAAGGUCUGCAUCUACUGGGUAACCUAA,0.00707 ± 0.006
14,CUUAAGGUCUGAGAUCUACUGGGUUACCUAA,0.0683 ± 0.018
15,CUUAAGCUCUGGAUCUACUGGGUUACGUUA,0.07 ± 0.016
16,CUUAACCUGACGAUCUACUGGGUUACCUAA,0.0532 ± 0.02
17,CUUAUCCUCUGGAUCUACUGGGUGACCUAA,0.0696 ± 0.014
18,CUUAAGCUCUGCGAUCUACUGGGUUACCUAA,0.0353 ± 0.0099
19,CUUAUGCUCAGGAUCUACUGGGUUACCUAA,0.101 ± 0.017
20,CUUAAGGAGUGGAUCUACUGGGUUACCUUAA,0.0324 ± 0.011
21,CUUAAGGAGUGCAUCUACUGGGUUACCUUA,0.00692 ± 0.0052
22,CUUAAGCUCUGGAUCUACUGGAUUACCUAA,0.0281 ± 0.0081
23,CUUAUCCUCUGGAUCUACUGGGAUACCAAA,0.026 ± 0.011
